The source gives no read counts; variants with many changes may rest on few reads.

Self-cleavage data for 167 variants are collected here from the RNAGym collection of RNA variant scans (doi:10.1093/nar/gkz1192).

The chains are these.
B1: CPEB3 Ribozyme (parent)
chain: UAACAGGGGGCCACAGCAGAAGCGUUCACGUCGCAGCCCCUGUCAGAUUCUGGUGAAUCUGCGAAUUCUGCUGUAUAUCUC

Variants of B1 are the subject of this series. The series can be described thus: self-cleavage, relative activity (ratio to wild type); higher = more cleavage; in vitro, sequencing. The procedure, abridged: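 After error-prone PCR and barcoding, CPEB3 ribozyme mutant libraries were transcribed with T7 RNA polymerase at 37°C for 5 hours, then given 15 min with DNase I before an EDTA stop, and they cleaved during both steps. Reverse transcription with template switching preceded Illumina sequencing. Relative activity divides a variant's cleaved/total read fraction by the unmutated ribozyme's. At least 5 reads were required per variant, and three batches were averaged.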
For the variant A13U A18G U25C A35U G55A U69C, the self-cleavage is 0.06. With A13U A18U U26C, the self-cleavage came out at 0.18. On to A13U A65G U67C U78A, for which the self-cleavage was 0.3.

As to A13U A15G A21G A56U U66A U72A U80C, the self-cleavage amounted to 0.05. As to C14A U31A U49C, the self-cleavage turned out to be 0.08. To A13U G30A U31C A56G belongs 0.07; to A13U U26C A56G A64U A65G, 0.08; to A13U A15C U49C, 0.22. Turning to C14A A18G A35G, the self-cleavage amounted to 0.87.

Regarding A13U C23G U76A U78C, the self-cleavage was determined as 0.06. As to C14U A20U A28G A35G A65G, the self-cleavage is 0.12.

Take A13U C32U A65G: the self-cleavage is 0.1.

Take C14U A15G G30A A64G: the self-cleavage was 0.22.

Consider A13U A20G U49A, for which the self-cleavage is 0.4. For A13G U54C C62A the value was 0.26; for A13U A20U A35G U51C U58G U66C A77C, 0.14. With A13U A56G A64C, the self-cleavage was 0.24.

For A13U A21G U49C U51A U58C C81A, the self-cleavage was 0.12. With A13U A57G U60C U67C, the self-cleavage was 0.24. For the variant A13U A35G A57G U67C, the self-cleavage came out at 0.79. As to A13U U41G A47U U48A, the self-cleavage was 0.12.

Turning to A13U A35U U60A A75G, the self-cleavage is 0.16. To A13U G19A U26A U69C belongs 0.12. For A13U A21G A45U A56G, the self-cleavage came out at 0.4. A13U A20G U69C: the self-cleavage worked out at 0.42.

For A13U G33A A56U U58A U69C U72C, the self-cleavage worked out at 0.07.

As for A13U C23U U67C, the self-cleavage was 0.38. A13U C32U U41A U54C U72C: the self-cleavage was found to be 0.17. In the case of A13U A18U U25C U43C G61A U67C U74A, the self-cleavage worked out at 0.05. For A13U A28G U41A U72A the value was 0.16; for A13U G63C A65G U66C, 0.2.

For C14U A20U U26C U58A, the self-cleavage was 0.15.

As for C14G A15C C37U U69G, the self-cleavage came to 0.06. With A13G U49C U54A G61U, the self-cleavage turned out to be 0.1. Regarding A13U A64U U80C, the self-cleavage stood at 0.57. Consider A13U U31A A65U U69C U76A, for which the self-cleavage turned out to be 0.1.

Regarding A13U A28G U51A C62U U72C, the self-cleavage came out at 0.15. As for A13U A15G G16A U60A, the self-cleavage was 0.19. For A13U A18C A45G U67A U76C, the self-cleavage amounted to 0.22. With A13U U26C U43C U49C U80A, the self-cleavage stood at 0.21. For A13G U72G U76C A77U the value was 0.68. In the case of A13U U48C U78C U80A, the self-cleavage is 0.47. As to A13U A20G U51C, the self-cleavage was determined as 0.78.

As to A13U U26C U41C U49C A57G, the self-cleavage turned out to be 0.07.

With A13U A20G A21U U31C C32A C38G C59U, the self-cleavage amounted to 0.06. For A13U A15G A56G G70A, the self-cleavage was 0.24.

As to A13U C37A A45U U54C, the self-cleavage worked out at 0.03.

On to A13G U78C U80A, for which the self-cleavage worked out at 1.14. Regarding A13G U49C U72A, the self-cleavage came to 0.29. Consider A13U G24A U26C A28G U60A G63A U69A, for which the self-cleavage worked out at 0.06. With A13U G24A A35U U49A A65G U74C A77G, the self-cleavage amounted to 0.04. Regarding A13U U66C U69A A77G U78A, the self-cleavage came out at 0.3. For A13G U48C U67C, the self-cleavage stood at 0.19. To A13G U66C C71U U74C A77G belongs 0.19; to A13U C23A C38G U51C A65G A77G, 0.06; to A13U A20U U43A U78C, 0.12.

Turning to A13U A15G U41C A56G, the self-cleavage was 0.66.

A13U U41C U54G A64G A65G U72G: the self-cleavage came to 0.19. With A13U U25A C37A U41C U43A U80C, the self-cleavage turned out to be 0.21. Take A13U G19A U26A: the self-cleavage turned out to be 0.08.

Regarding A13G U58A A64G U66A U72A, the self-cleavage came to 0.07.

On to A13U U25C A35G U66G, for which the self-cleavage worked out at 0.09. As to C14U A15G A18G, the self-cleavage stood at 0.15. To A13U A21G U49C U54A U74C A75U belongs 0.18; to A13U A35G U41C U48C A56G U74C, 1.09. A13U G22U A45G U54C A75U: the self-cleavage was determined as 0.09.

As for A13U A18U G53A A65U, the self-cleavage was 0.27. Take A13U A20U U26A: the self-cleavage is 0.11. To C14A U43C C59U U60A belongs 0.23; to A13U C23A U66A U67A, 0.14. A13U C17U C23U U31A U41C: the self-cleavage was found to be 0.08. On to A13U U31C A35U C40U A45U, for which the self-cleavage is 0.07.

As to C14A A45G U60A U72A, the self-cleavage amounted to 0.47.

Turning to C14A U43C A56U C59A, the self-cleavage was 0.13.

As to C14G A18G A20C, the self-cleavage stood at 0. As for C14U A18U C29U U31A, the self-cleavage turned out to be 0.07.

On to A13U A20U A45U G63A A64G U66C U69C, for which the self-cleavage was 0.05.

As for A13U A18U A20G U66C A75C, the self-cleavage amounted to 0.19.

Take A13G U60C A75G: the self-cleavage is 0.63. Take A13U C23A U60A U78C: the self-cleavage is 0.13. Regarding C14A G55U U67C, the self-cleavage was 0.09.

Take A13U U54C A64G U72C A77U: the self-cleavage is 0.88. With A13U A20G A35G A65G, the self-cleavage was 0.88. Take A13G U54C U69G: the self-cleavage came to 0.45.

Take A13U A18U U26A A28G A45U: the self-cleavage worked out at 0.17.

For the variant A13U A18U U60C, the self-cleavage turned out to be 0.24.

With C14U A15G G24A U60A U66C, the self-cleavage was determined as 0.1.

C14A A57G U67A U78A: the self-cleavage turned out to be 0.08.

As to A13U U41C A45G U67C, the self-cleavage came to 0.15.

Turning to A13U A57G U60C U78C, the self-cleavage worked out at 0.59.

A13U U25C C71G: the self-cleavage came to 0.04.

As to C14U A35G A75G U76C, the self-cleavage is 1.3. Turning to A13U A18G C40U U67C U78A, the self-cleavage came out at 0.11. For A13U U25A U58C U60A A64G U78C the value was 0.08; for C14A A56G U67C, 0.26. Consider A13U U54A U72A, for which the self-cleavage was determined as 0.81. With A13U U60A U69A U74C A75U, the self-cleavage turned out to be 0.26.

For the variant A13U U26A U48C U76C, the self-cleavage came to 0.81. To C14U A15U U72A belongs 1.15. Take A13U U60A A65U U67C: the self-cleavage amounted to 0.29. Take A13U U31C U51A A64G U66C: the self-cleavage is 0.14. For A13U A20G A56G the value was 0.83.

With A13U G24A C38U A57G, the self-cleavage was found to be 0.11.

In the case of A13U A15G U43C, the self-cleavage is 0.85.

For the variant A13U U41C A77G, the self-cleavage came out at 1.2. For A13U U26C U43C, the self-cleavage was 0.75. Consider A13U A21G U25C U60A A64G, for which the self-cleavage stood at 0.52.

Turning to A13U U43C U66C, the self-cleavage was determined as 0.18.

Regarding A13G U58A U60C, the self-cleavage worked out at 0.27. In the case of A13G U54G G63C A65U U69A, the self-cleavage is 0.16. Turning to A13U U41C U51C U60C, the self-cleavage amounted to 0.41.

In the case of A13U A21G U69C, the self-cleavage was 0.15. As to C14A U41A A57G, the self-cleavage was 0.11. With A13U A28G C38A, the self-cleavage amounted to 0.09. A13U A18U A47U U58A U80C: the self-cleavage turned out to be 0.22.

As to A13U G19U U25C U41C U67C, the self-cleavage came to 0.06. As for A13U A56G U74C, the self-cleavage came out at 1.24. On to A13U A18G U31G A35G U41A U58C, for which the self-cleavage came out at 0.04. For the variant A13U G30U U54A, the self-cleavage is 0.1. With C14U A21G U25C C38U A57G U78C, the self-cleavage is 0.09. For the variant C14A U41C U43C U67C, the self-cleavage turned out to be 0.06. In the case of A13U A18U U54C U69C U74C, the self-cleavage is 0.32. For A13U C34U U41C U49C U51A U80C, the self-cleavage came out at 0.13.

With A13U G16U A21G U31C U69C U72C, the self-cleavage was 0.16. Take A13U U48C A77G: the self-cleavage was determined as 1.01. For A13U U41C U72C, the self-cleavage came out at 1.15. Take A13U A45G A57G A75U: the self-cleavage turned out to be 0.94. With A13U U26C U31C A45U U69C U72C, the self-cleavage is 0.06.

As for C14U A21U U26C A28G U72C, the self-cleavage stood at 0.28. For A13U U41C U51C C62U, the self-cleavage was 0.25.

In the case of A13U U26C U41A U80C, the self-cleavage stood at 0.09. On to A13U C71U U80C, for which the self-cleavage came to 1.25. For A13U C17U U31C the value was 0.52; for A13G U43C U80A, 0.72.

Consider A13U U54A C71U U72C, for which the self-cleavage turned out to be 0.31. Regarding A13U C32A G36A A45G U72C, the self-cleavage came to 0.08. A13U A18U U43C U67C: the self-cleavage was found to be 0.11.

As for A13U A15G A28U U51C U80A, the self-cleavage amounted to 0.47.

As to A13U A35U A65G U69C, the self-cleavage is 0.05.

Consider A13U A15U G73A, for which the self-cleavage amounted to 1.03. As to A13U A28U A45U U66C U76A U78G, the self-cleavage stood at 0.11. Consider C14A U48C U72C A75U, for which the self-cleavage was found to be 0.9. As to A13U A18U U67A U76C, the self-cleavage was found to be 0.2.

Take A13U A21G C34U U49C U58G: the self-cleavage came to 0.05. For the variant A13U A20G G33A, the self-cleavage was 0.29. Take A13U A20G A57G U69C: the self-cleavage was found to be 0.26. On to A13U U51G G52C A56U U69A, for which the self-cleavage came out at 0.33.

A13U A21G A35U U60C U72C A77G: the self-cleavage was 0.05.

Consider C14U A15C A35U U60C U69C, for which the self-cleavage worked out at 0.09.

On to A13U U72C U78C, for which the self-cleavage is 1.33. For the variant C14A U26G C32U U49C, the self-cleavage came to 0.04. Regarding A13U C23A C27A C39A G63A A64U U72C, the self-cleavage stood at 0.04. With A13U A18U A45U U54C U76A, the self-cleavage came out at 0.12.

A13U U25C U26A U41C U76A: the self-cleavage is 0.29. Take A13U A15G A28G U31G A45U U60C: the self-cleavage was found to be 0.07.

As to A13U U25C A28G U48A U72A, the self-cleavage was 0.07. For C14G A21G A56G A57G U67A, the self-cleavage stood at 0.31.

As for A13U A18C U51C A64G A65G U74C, the self-cleavage worked out at 0.04. For A13U G33U A56G the value was 0.23.

With A13U A20G G33A G53U U54A U66G U72C, the self-cleavage was 0.04. For the variant A13U U43C A56U A64G, the self-cleavage came out at 0.12.

Consider A13U A15C A20G A35U U41A U76G, for which the self-cleavage amounted to 0.09. Take A13U U25C A28G A45G U67C: the self-cleavage was found to be 0.21. To A13U U31A U49C belongs 0.26; to A13U A28G A56G U67A, 0.13. To A13U A28G U43C C62U U72C belongs 0.08. In the case of C14A A35U U49A A57G, the self-cleavage came to 0.43.
